Source: the supplement of paper PMC4723716
In all, about 3,600 compounds were measured (“viability index relative to DMSO control”: median about 0.81, lowest 2% from about 0.13 on). Some of the results follow.

These molecules were tested on Plasmodium falciparum NF54 stage V gametocytes (assay: viability index relative to DMSO control (fraction); higher = less gametocyte killing). Conditions: 1.25 µM, incubation time: 72 h.
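Also: 384-well serum-free SaLSSA: MitoTracker Red CMXRos staining with saponin lysis, high-content imaging, treated-well particle count divided by plate-mean count of DMSO wells.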

Row | SMILES | viability index
1 | Cc1n[nH]c2c1C(c1ccc([N+](=O)[O-])cc1)N(c1ccc(Br)cc1)C2=O (centres undefined) | 1.11
2 | c1ccc(-c2nn(-c3ccccc3)[n+](-c3ccccc3)n2)cc1 | 0.471
3 | COc1cnc(-c2ccccn2)nc1N1CCCC1 | 0.0429
4 | CCOc1cc(Br)cc(C=C2NC(=S)NC2=O)c1O | 0.789
5 | CN1C(=O)N(C)C(NNC(N)=S)C1NNC(N)=S (centres undefined) | 0.144
6 | CCOc1ccc(Nc2nc(NCc3ccccc3)c3ccccc3n2)cc1 | 0.973
7 | COc1ccc(-c2cc(C(F)(F)F)n3nc(C(=O)NC4CCCCC4)c(Cl)c3n2)cc1OC | 1.22
8 | c1ccc(Cn2c(N=Nc3c(Nc4ccccc4)ccc4ccccc34)nc3ccccc32)cc1 | 0.714
9 | Nc1nonc1-n1nnc(C(=O)NN=Cc2cc(Br)cs2)c1-c1ccccc1 | 0.657
10 | Cc1c(Cl)cccc1N1C(=O)C2C3c4ccccc4C(c4ccccc43)C2C1=O (centres undefined) | 1.22
11 | O=C(NC1CCN(Cc2ccccc2)CC1)[C@@H](c1ccccc1)N1Cc2ccccc2C1=O | 0.916
12 | Cc1cc(N2CCN(c3ccccn3)CC2)n2c(nc3ccccc32)c1C#N | 0.775
13 | COc1ccc(CN2CCN(C(=O)c3cccnc3)CC2)cc1OC | 1.03
14 | Cc1cc(NC2CCCCC2)nc(NCc2ccccc2)n1 | 0.629
15 | Cc1ccc2cc3c(N)c4c(C)ccc(C)c4nc3nc2c1 | 0.667
16 | CCOC(=O)c1c(N=Cc2cccc(OC)c2O)sc2c1CCN(C)C2 | 0.649
17 | CN(Cc1cc(-c2ccc(F)cc2)ccc1O)CC(O)c1ccccc1 (centres undefined) | 0.933
18 | CCCn1c(SCC(=O)N2c3ccccc3CC2C)nc2c1c(=O)n(C)c(=O)n2C (centres undefined) | 0.896
19 | Cc1ccc(Cl)cc1Nc1nc2ccccc2n2c(C)nnc12 | 0.739
20 | CCOc1ccc(Nc2cc(C)nc(Nc3ccc(OCC)cc3)n2)cc1 | 0.667

Row | SMILES | viability index
21 | CCNc1nc(NC(C)(C)C)nc(N2CCCC2)n1 | 0.819
22 | CC1(C)N=C(N)N=C(N)N1c1ccc(Oc2ccc(Cl)cc2)c(Cl)c1 | 0.576
23 | CCOC(=O)c1c(C)[n+](-c2ccc(C)cc2)c(CC)c2cc(OC)c(OC)cc12 | 0.717
24 | O=C(Nc1ccc(Cl)cc1Cl)c1ccc(-c2nc(-c3ccccc3Cl)cs2)cc1 | 1.04
25 | Cc1cccc(-n2ccnc2SCC(=O)Nc2cc(C(F)(F)F)ccc2Cl)c1 | 1.01
26 | CC1=CC(=C(C#N)c2nc3ccccc3s2)C=C(C)N1c1ccc2c(c1)OCO2 | 1.02
27 | CCOC(=O)c1c(NC(=O)c2cccnc2)sc(C)c1CC | 0.747
28 | COc1cccc(N2C(=O)/C(=C/c3cccnc3)SC2=S)c1 | 0.81
29 | COc1ccc(C2=NN(C(=O)CCC(=O)O)C(c3ccccc3F)C2)cc1 (centres undefined) | 1.35
30 | CCc1ccc(NC(=O)COC(=O)c2cccs2)cc1 | 0.728
31 | CCN1C(C(=O)c2ccccc2)=C(Nc2c(C)n(C)n(-c3ccccc3)c2=O)c2ccccc2S1(=O)=O | 0.816
32 | CC(C)c1nc(N2CCN(C(=S)NCc3ccccc3)CC2)c(C#N)c2c1COC(C)(C)C2 | 0.0888
33 | CCOC(=O)C1=C(C)NC(=Cc2cc(C)n(-c3ccccc3C(F)(F)F)c2C)C1=O | 0.498
34 | CCCCn1c(=N)n(CC(O)c2ccc(Cl)c(Cl)c2)c2ccccc21 (centres undefined) | 0.411
35 | N=c1n(Cc2ccccc2)c2ccccc2n1CC(O)c1ccc(Cl)cc1 (centres undefined) | 0.657
36 | COc1ccc(-c2ccc3c(N)c(C(=O)NCCc4ccccc4)sc3n2)cc1OC | 0.638
37 | CC12CN(Cc3ccccc3)CC(C)(CN(Cc3cccc(Br)c3)C1)C2 | 0.996
38 | Cc1ccc(C)c(NC2=C(c3ccc(C(F)(F)F)cc3)C(=O)c3ccccc32)c1 | 0.904
39 | CC(C)(C)c1nn(-c2ccc(Cl)cc2)c2[nH]c(=O)c(CNCc3ccc(Cl)cc3)cc12 | 0.391
40 | COc1ccc(CNC(=O)C(Cc2c[nH]c3ccccc23)N2CCS(=O)(=O)CC2)cc1 (centres undefined) | 1.04

Row | SMILES | viability index
41 | Cn1c(=NC(=O)c2ccc(S(=O)(=O)N3CCCCC3)cc2)sc2cc(Cl)ccc21 | 0.694
42 | COc1cccc(-c2ccc(O)c(CNCC3CCCCC3)c2)n1 | 0.615
43 | O=C(NC(c1ccccc1)c1ccc2cccnc2c1O)c1ccccc1 (centres undefined) | 0.714
44 | COc1ccc(C)cc1-n1c(-c2ccc(Cl)cc2)cc2c1CC(C)(C)CC2=O | 0.594
45 | CC(=O)N(C1=C(N(C)C)C(=O)c2ccccc2C1=O)c1cccc(F)c1 | 0.0612
46 | Oc1c(CN2CCCCC2)ccc2ccccc12 | 0.487
47 | CCOc1ccccc1-n1c(N)c(C(=O)Nc2ccc(F)cc2)sc1=S | 1.17
48 | CC1=C(CC(=O)c2ccc(Cl)cc2)C(=O)c2ccccc2C1=O | 0.834
49 | O=c1[nH]nc(SCc2c(F)cccc2[N+](=O)[O-])c(=O)[nH]1 | 0.766
50 | C[n+]1c2n(c3ccccc31)N=C(c1ccccc1)CS2 | 0.781
51 | CCC(C)(C)C1CCc2sc3ncnc(NN=Cc4c(Cl)cccc4Cl)c3c2C1 (centres undefined) | 0.336
52 | c1ccc(Nc2ccnc(Nc3ccccc3)n2)cc1 | 0.807
53 | N#Cc1c(-c2ccccc2)cc(N2CCN(C3CCCCC3)CC2)n2c1nc1ccccc12 | 0.822
54 | CC(=O)Nc1cccc(NC(=O)CSc2ccc3nnc(-c4ccc(F)cc4)n3n2)c1 | 0.702
55 | CCCN(CCC)S(=O)(=O)c1ccc(C(=O)Nc2ccccc2C(=O)Oc2ccc3c(c2)c(C(=O)OCC)c(C)n3-c2ccccc2)cc1 | 0.579
56 | COc1ccc2c(C)nc(NC(=N)N)nc2c1 | 0.864
57 | CC[n+]1c(C=C2Sc3ccc(OC)cc3N2C)ccc2cc(C)ccc21 | 0.325
58 | Cc1cc(C)nc(NC(=N)Nc2cccc(O)c2)n1 | 0.656
59 | COC(=O)C1=C(C)NC2=C(C(=O)CC(c3ccc(OC)c(OC)c3)C2)C1c1ccccc1F (centres undefined) | 0.923
